Our source for the cytotoxicity call and growth inhibition call values is the antibiotic and cytotoxicity screens of Wong et al. (2023).

SMILES strings stand for the structures. The list shows a part of the results.

One assay concerns HSkMC. As to the kind of experiment: cytotoxicity call (relative viability < 0.9). As to conditions: 10 µM.
The subject of the next assay is HepG2. Briefly: cytotoxicity call (relative viability < 0.9). The conditions noted are these: 10 µM.
The next assay deals with S. aureus RN4220. As to the kind of experiment: growth inhibition call (relative growth <= 0.2). The conditions noted are these: 50 µM.

`O=C(NCCN1CCCC1)[C@@H]1[C@@H](CO)[C@@H]2Cn3c(cccc3=O)[C@H]1N2C(=O)c1ccccc1`: the cytotoxicity call in the assay with HSkMC and with HepG2 was “inactive” in each case. Besides, the growth inhibition call in the assay with S. aureus RN4220 was “inactive”.
As for `C[C@H]1CN([C@@H](C)CO)C(=O)c2c(c3ccccc3n2C)-c2ccccc2CO[C@@H]1CN(C)Cc1cccc(C(F)(F)F)c1`, the cytotoxicity call in the assay with HSkMC was “active”. Further, in the assay with HepG2, the cytotoxicity call is “inactive”. The growth inhibition call in the assay on S. aureus RN4220 is “inactive”.
Take `Cc1ccc(S(=O)(=O)N(C)C[C@H]2Oc3ccc(NC(=O)C4CC4)cc3CC(=O)N([C@@H](C)CO)C[C@@H]2C)cc1`: the cytotoxicity call with HSkMC and in the assay on HepG2 was “inactive” each time. In the assay on S. aureus RN4220, the growth inhibition call is “inactive”.
Take `Cc1noc(C)c1NC(=O)Nc1ccc2c(c1)C(=O)N([C@@H](C)CO)C[C@H](C)[C@H](CN(C)C(=O)NC(C)C)O2`: the cytotoxicity call in the assay with HSkMC and with HepG2 was “inactive” each time. Moreover, in the assay with S. aureus RN4220, the growth inhibition call was “inactive”.
Take `C[C@@H]1CCCCO[C@@H](CN(C)C(=O)Cc2ccccc2)[C@@H](C)CN([C@@H](C)CO)C(=O)c2cc(NC(=O)C3CCCCC3)ccc2O1`: the cytotoxicity call with HSkMC and in the assay on HepG2 was “inactive” in each case. In addition, the growth inhibition call in the assay with S. aureus RN4220 was “inactive”.
In the case of `CC1CC2C3CCC4=CC(=O)C=CC4(C)C3(F)C(O)CC2(C)C1(O)C(=O)COP(=O)([O-])[O-].[Na+].[Na+]` (stereo unspecified), the cytotoxicity call with HSkMC and in the assay with HepG2 was “inactive” in each case. The growth inhibition call in the assay with S. aureus RN4220 is “inactive”.
On to `COC(=O)OCOc1c2n(ccc1=O)N([C@@H]1c3ccccc3SCc3c1ccc(F)c3F)[C@@H]1COCCN1C2=O`, for which the cytotoxicity call with HSkMC and in the assay with HepG2 was “inactive” in each case. Also, the growth inhibition call in the assay with S. aureus RN4220 is “inactive”.
Turning to `C[C@H](CO)N1C[C@H](C)[C@@H](CN(C)S(=O)(=O)c2cn(C)cn2)OCCCC[C@H](C)Oc2ccc(NS(C)(=O)=O)cc2C1=O`, the cytotoxicity call in the assay with HSkMC and with HepG2 was “inactive” in each case. In the assay with S. aureus RN4220, the growth inhibition call was “inactive”.
In the case of `COc1ccc(CN(C)C[C@H]2OCCCC[C@@H](C)Oc3ccc(NS(=O)(=O)c4ccc(Cl)cc4)cc3C(=O)N([C@@H](C)CO)C[C@@H]2C)cc1`, the cytotoxicity call in the assay on HSkMC and with HepG2 was “inactive” throughout. Besides, the growth inhibition call in the assay with S. aureus RN4220 was “inactive”.
`Cc1cc2c(cc1C)N=C(C(F)(F)F)CC(c1cccs1)=N2`: the cytotoxicity call in the assay with HSkMC and with HepG2 was “inactive” each time. For the same compound, the growth inhibition call with S. aureus RN4220 is “inactive”.
For `C[C@@H]1CN([C@H](C)CO)S(=O)(=O)c2ccc(-c3cccc(C(=O)N(C)C)c3)cc2O[C@H]1CN(C)C(=O)Cc1ccccn1`, the cytotoxicity call with HSkMC and in the assay on HepG2 was “inactive” each time. For the same compound, in the assay on S. aureus RN4220, the growth inhibition call is “inactive”.
In the case of `C=C(C)C(=O)NC(=O)/C=C/C`, the cytotoxicity call in the assay with HSkMC and in the assay with HepG2 was “inactive” each time. Further, the growth inhibition call in the assay on S. aureus RN4220 was “inactive”.
`Cc1noc(C)c1S(=O)(=O)Nc1ccc2c(c1)CC(=O)N([C@@H](C)CO)C[C@H](C)[C@@H](CN(C)CC1CC1)O2`: the cytotoxicity call in the assay on HSkMC and in the assay with HepG2 was “inactive” each time. In addition, the growth inhibition call with S. aureus RN4220 was “inactive”.
Regarding `C[C@@H]1CN([C@@H](C)CO)S(=O)(=O)c2ccc(-c3ccc(F)cc3)cc2O[C@H]1CN(C)C(=O)C1CCOCC1`, the cytotoxicity call with HSkMC and with HepG2 was “inactive” each time. Also, the growth inhibition call with S. aureus RN4220 was “inactive”.
Take `C[C@H](CO)N1C[C@H](C)[C@H](CN(C)C(=O)Nc2ccc3c(c2)OCCO3)OCc2cn(nn2)CCCC1=O`: the cytotoxicity call in the assay with HSkMC and in the assay with HepG2 was “inactive” throughout. Besides, the growth inhibition call in the assay with S. aureus RN4220 is “inactive”.
For `CS(=O)(=O)NCc1ncn2c1CN(C(=O)[C@H]1CCCO1)CCC2`, the cytotoxicity call in the assay with HSkMC and in the assay on HepG2 was “inactive” throughout. The growth inhibition call in the assay on S. aureus RN4220 was “inactive”.
Consider `O=C(C[C@@H]1CC[C@@H]2[C@H](COC[C@H](O)CN2S(=O)(=O)c2ccccc2F)O1)NCc1ccccc1Cl`, for which the cytotoxicity call in the assay on HSkMC and in the assay with HepG2 was “inactive” each time. Besides, the growth inhibition call in the assay with S. aureus RN4220 was “inactive”.
Consider `COc1ccc(NC(=O)Nc2ccc3c(c2)C(=O)N([C@H](C)CO)C[C@@H](C)[C@@H](CN(C)S(=O)(=O)c2cccs2)OCCCC[C@@H](C)O3)cc1`, for which the cytotoxicity call in the assay on HSkMC and in the assay on HepG2 was “inactive” in each case. For the same compound, the growth inhibition call in the assay with S. aureus RN4220 was “inactive”.
As to `C[C@H]1CN([C@@H](C)CO)C(=O)c2cccc(NC(=O)Nc3ccccc3)c2O[C@H]1CN(C)S(=O)(=O)c1cn(C)cn1`, the cytotoxicity call with HSkMC and in the assay on HepG2 was “inactive” each time. Also, in the assay with S. aureus RN4220, the growth inhibition call is “inactive”.
For the compound `O=c1c(O)nnc2n1CCN2c1ccccc1`, the cytotoxicity call in the assay on HSkMC (human skeletal muscle cells) and in the assay with HepG2 was “inactive” each time. Also, in the assay on S. aureus RN4220, the growth inhibition call was “inactive”.
In the case of `C[C@H](CO)N1C[C@H](C)[C@@H](CN(C)Cc2ccccc2)Oc2c(NS(=O)(=O)c3cn(C)cn3)cccc2C1=O`, the cytotoxicity call in the assay with HSkMC and with HepG2 was “inactive” each time. Also, in the assay with S. aureus RN4220, the growth inhibition call is “inactive”.
`O=C(C[C@@H]1CC[C@@H]2[C@H](COC[C@@H](O)CN2C(=O)c2ccncc2)O1)NC1CCC1`: the cytotoxicity call with HSkMC and in the assay with HepG2 was “inactive” in each case. For the same compound, the growth inhibition call in the assay on S. aureus RN4220 is “inactive”.
Regarding `CN1CCN(C(=O)C[C@@H]2C=C[C@H](NC(=O)Cc3ccccn3)[C@H](CO)O2)CC1`, the cytotoxicity call in the assay with HSkMC and in the assay on HepG2 was “inactive” in each case. Besides, the growth inhibition call in the assay on S. aureus RN4220 was “inactive”.
For `Cc1noc(C)c1S(=O)(=O)N(C)C[C@@H]1Oc2ccc(NC(=O)c3ccncc3)cc2CC(=O)N([C@@H](C)CO)C[C@@H]1C`, the cytotoxicity call with HSkMC and with HepG2 was “inactive” each time. In addition, the growth inhibition call in the assay with S. aureus RN4220 is “inactive”.
Consider `C[C@@H]1CN([C@H](C)CO)C(=O)c2cccc(NC(=O)c3nc4ccccc4s3)c2O[C@@H]1CN(C)C(=O)Nc1cccc2ccccc12`, for which the cytotoxicity call with HSkMC and with HepG2 was “inactive” each time. Further, in the assay on S. aureus RN4220, the growth inhibition call is “inactive”.
In the case of `C[C@H](CO)N1C[C@H](C)[C@H](CN(C)C(=O)Nc2ccc3c(c2)OCO3)OCCCC[C@H](C)Oc2ccc(NC(=O)Nc3cccc4ccccc34)cc2C1=O`, the cytotoxicity call with HSkMC and with HepG2 was “inactive” each time. Further, the growth inhibition call in the assay with S. aureus RN4220 was “inactive”.
For `C[C@H]1CCCCO[C@H](CN(C)C(=O)Nc2ccc3c(c2)OCO3)[C@@H](C)CN([C@@H](C)CO)C(=O)c2cc(NC(=O)CCC(F)(F)F)ccc2O1`, the cytotoxicity call with HSkMC and with HepG2 was “inactive” throughout. The growth inhibition call in the assay with S. aureus RN4220 is “inactive”.
